We go through 33 variants from the GPR68 mutational scans of Howard et al. (2025).

Sequences and labels used below:
B1: GPR68, Q15743 (parent)
chain: MGNITADNSSMSCTIDHTIHQTLAPVVYVTVLVVGFPANCLSLYFGYLQIKARNELGVYLCNLTVADLFYICSLPFWLQYVLQHDNWSHGDLSCQVCGILLYENIYISVGFLCCISVDRYLAVAHPFRFHQFRTLKAAVGVSVVIWAKELLTSIYFLMHEEVIEDENQHRVCFEHYPIQAWQRAINYYRFLVGFLFPICLLLASYQGILRAVRRSHGTQKSRKDQIQRLVLSTVVIFLACFLPYHVLLLVRSVWEASCDFAKGVFNAYHFSLLLTSFNCVADPVLYCFVSETTHRDLARLRGACLAFLTCSRTGRAREAYPLGAPEASGKSGAQGEEPELLTKLHPAFQTPNSPGSGGFPTGRLA

Scores with a large standard error are left out. Two further conditions of the source, in which the scores hardly spread, are not listed. In variant names, del marks residues removed and ins residues inserted between the two positions. For some assays here: How much ogerin was present is not stated here.

Series [1] covers variants of B1. Nature of the series: cAMP reporter score (Enrich2 score, wild type = 0); higher = more signal; HEK293T, FACS bins.
Variants of B1 are the subject of series [2]. The series is described as follows: surface expression score (Enrich2 score, wild type = 0); higher = more signal; HEK293T, FACS bins.

For the variant P126_F127insGS, the cAMP reporter score was -0.965 in series [1] (pH 5.5); -1.67 in series [1] (pH 6); -0.319 in series [1] (pH 6.5, modulator: ogerin). Besides, in series [2], the surface expression score was -2.86.

For the variant R128_F129insGSG, the cAMP reporter score in series [1] (pH 5.5) was -2.23; in series [1] (pH 6), 0.286; in series [1] (pH 6.5, modulator: ogerin), -1.85.

H125_P126insGS: the cAMP reporter score in series [1] (pH 5.5) is -0.859; in series [1] (pH 6), -0.952; in series [1] (pH 6, modulator: ogerin) it was -1.23; in series [1] (pH 6.5, modulator: ogerin), -0.678. For the same variant, in series [2], the surface expression score is -3.19.

On to F129W, for which the cAMP reporter score in series [1] (pH 5.5) is 0.031; in series [1] (pH 6, modulator: ogerin) it was 0.512; in series [1] (pH 6.5, modulator: ogerin) it was -0.64. In addition, in series [2], the surface expression score was -0.404.

Turning to F129V, the cAMP reporter score was -0.209 in series [1] (pH 5.5); -0.337 in series [1] (pH 6); 0.041 in series [1] (pH 6, modulator: ogerin); -0.4 in series [1] (pH 6.5, modulator: ogerin). For the same variant, the surface expression score in series [2] is -2.14.

F129H: the cAMP reporter score in series [1] (pH 5.5) is -0.317; in series [1] (pH 6), -1.07; in series [1] (pH 6, modulator: ogerin), -0.817; in series [1] (pH 6.5, modulator: ogerin), -0.236. Besides, the surface expression score in series [2] is -2.94.

For the variant F129L, the cAMP reporter score in series [1] (pH 5.5) was -0.404; in series [1] (pH 6), -0.466; in series [1] (pH 6, modulator: ogerin) it was -0.911; in series [1] (pH 6.5, modulator: ogerin), -0.635. For the same variant, in series [2], the surface expression score was -0.928.

Turning to F129I, the cAMP reporter score in series [1] (pH 5.5) is 0.062; in series [1] (pH 6, modulator: ogerin) it was -0.829; in series [1] (pH 6.5, modulator: ogerin) it was -1.28. Besides, the surface expression score in series [2] is -2.39.

Regarding F129C, the cAMP reporter score in series [1] (pH 5.5) was 0.243; in series [1] (pH 6), -0.972; in series [1] (pH 6, modulator: ogerin), -0.758; in series [1] (pH 6.5, modulator: ogerin), -0.843.

Turning to F129G, the cAMP reporter score in series [1] (pH 5.5) was -1.38; in series [1] (pH 6), -0.184; in series [1] (pH 6, modulator: ogerin) it was -1.74; in series [1] (pH 6.5, modulator: ogerin) it was -1.04. Moreover, the surface expression score in series [2] is -1.92.

On to F129D, for which the cAMP reporter score is -2.88 in series [1] (pH 5.5); 0.185 in series [1] (pH 6); -2.3 in series [1] (pH 6, modulator: ogerin); -1.66 in series [1] (pH 6.5, modulator: ogerin). Further, in series [2], the surface expression score was -1.95.

With F129N, the cAMP reporter score was -0.866 in series [1] (pH 5.5); -1.24 in series [1] (pH 6); -1.91 in series [1] (pH 6, modulator: ogerin); -0.935 in series [1] (pH 6.5, modulator: ogerin). Further, in series [2], the surface expression score was -1.82.

As to F129Y, the cAMP reporter score came to 0.617 in series [1] (pH 5.5); 1.02 in series [1] (pH 6, modulator: ogerin); 0.299 in series [1] (pH 6.5, modulator: ogerin). The surface expression score in series [2] was -1.66.

Take F129S: the cAMP reporter score was 0.324 in series [1] (pH 5.5); 0.577 in series [1] (pH 6); -0.963 in series [1] (pH 6, modulator: ogerin); -0.256 in series [1] (pH 6.5, modulator: ogerin). Also, the surface expression score in series [2] is -1.06.

Turning to F129K, the cAMP reporter score in series [1] (pH 5.5) is -1.36; in series [1] (pH 6), -1.23; in series [1] (pH 6, modulator: ogerin), -1.57; in series [1] (pH 6.5, modulator: ogerin), -1.42. For the same variant, the surface expression score in series [2] was -2.61.

As for F129Q, the cAMP reporter score in series [1] (pH 5.5) was -0.502; in series [1] (pH 6) it was -0.718; in series [1] (pH 6, modulator: ogerin), -1.23; in series [1] (pH 6.5, modulator: ogerin), -0.254. Besides, the surface expression score in series [2] was -3.05.

As for F129T, the cAMP reporter score in series [1] (pH 5.5) is -1.64; in series [1] (pH 6), -1.12; in series [1] (pH 6, modulator: ogerin), -1.56; in series [1] (pH 6.5, modulator: ogerin), -0.136. Also, the surface expression score in series [2] was -1.31.

Take F129R: the cAMP reporter score in series [1] (pH 5.5) is -1.76; in series [1] (pH 6), -1.5; in series [1] (pH 6, modulator: ogerin), -1.14; in series [1] (pH 6.5, modulator: ogerin), -1.97. Further, in series [2], the surface expression score was -3.77.

Consider F129M, for which the cAMP reporter score was -1.86 in series [1] (pH 5.5); -1.6 in series [1] (pH 6); -0.898 in series [1] (pH 6.5, modulator: ogerin). The surface expression score in series [2] was -1.61.

On to F129P, for which the cAMP reporter score is -1.48 in series [1] (pH 5.5); -1.63 in series [1] (pH 6); -1.27 in series [1] (pH 6, modulator: ogerin); -2.13 in series [1] (pH 6.5, modulator: ogerin). The surface expression score in series [2] is -2.19.

On to F129E, for which the cAMP reporter score was -1.3 in series [1] (pH 5.5); -1.4 in series [1] (pH 6); -1.86 in series [1] (pH 6, modulator: ogerin); -1.47 in series [1] (pH 6.5, modulator: ogerin). Further, the surface expression score in series [2] is -2.73.

Turning to H125_P126del, the cAMP reporter score is -1.14 in series [1] (pH 5.5); -2.74 in series [1] (pH 6); -0.898 in series [1] (pH 6, modulator: ogerin); -2.83 in series [1] (pH 6.5, modulator: ogerin). Besides, in series [2], the surface expression score is -3.38.

R128Y: the cAMP reporter score in series [1] (pH 5.5) was -1.05; in series [1] (pH 6), -1.89; in series [1] (pH 6, modulator: ogerin), -1.57.

On to R128V, for which the cAMP reporter score is -0.625 in series [1] (pH 5.5); -0.71 in series [1] (pH 6, modulator: ogerin); -0.99 in series [1] (pH 6.5, modulator: ogerin). Also, the surface expression score in series [2] was -0.428.

On to R128K, for which the cAMP reporter score in series [1] (pH 5.5) was -0.404; in series [1] (pH 6) it was -0.498; in series [1] (pH 6, modulator: ogerin), -0.689. In series [2], the surface expression score is -0.118.

Turning to R128L, the cAMP reporter score in series [1] (pH 5.5) is -0.795; in series [1] (pH 6, modulator: ogerin), -0.327; in series [1] (pH 6.5, modulator: ogerin) it was -0.787.

Take R128D: the cAMP reporter score in series [1] (pH 5.5) was -1.93; in series [1] (pH 6), -1.15; in series [1] (pH 6.5, modulator: ogerin) it was -0.905. For the same variant, the surface expression score in series [2] was -1.27.

Take R128H: the cAMP reporter score in series [1] (pH 5.5) is 2.38; in series [1] (pH 6), -1.15; in series [1] (pH 6, modulator: ogerin) it was 0.824; in series [1] (pH 6.5, modulator: ogerin), -0.611.

As for R128I, the cAMP reporter score in series [1] (pH 5.5) was -1.01; in series [1] (pH 6), 1.93; in series [1] (pH 6.5, modulator: ogerin), -1.23. In addition, the surface expression score in series [2] was -2.25.

Consider R128G, for which the cAMP reporter score in series [1] (pH 5.5) is 0.419; in series [1] (pH 6) it was -0.12; in series [1] (pH 6, modulator: ogerin) it was 0.588; in series [1] (pH 6.5, modulator: ogerin) it was -0.753.

For R128E, the cAMP reporter score in series [1] (pH 5.5) is -0.542; in series [1] (pH 6), -1.41; in series [1] (pH 6, modulator: ogerin) it was -0.788; in series [1] (pH 6.5, modulator: ogerin) it was -1.45. In series [2], the surface expression score is -2.35.

Regarding R128C, the cAMP reporter score was -0.446 in series [1] (pH 5.5); -1.8 in series [1] (pH 6); -1.47 in series [1] (pH 6, modulator: ogerin); -0.619 in series [1] (pH 6.5, modulator: ogerin). Further, in series [2], the surface expression score was -2.29.

For R128T, the cAMP reporter score in series [1] (pH 5.5) was 0.264; in series [1] (pH 6), -0.188; in series [1] (pH 6, modulator: ogerin), -0.733. In addition, the surface expression score in series [2] is -0.392.
